Source: the BET-seq Pho4 binding data (Le et al. 2018)
Some of the results follow. The energies were worked out here from pooled read counts, against the library average; single values are noisy.

What follows are sequences tested against T1, Pho4 (S. cerevisiae) (UniProt P07270) (assay: relative binding free energy (BET-seq); higher = weaker binding). Conditions: reference: library average.
T1 sequence: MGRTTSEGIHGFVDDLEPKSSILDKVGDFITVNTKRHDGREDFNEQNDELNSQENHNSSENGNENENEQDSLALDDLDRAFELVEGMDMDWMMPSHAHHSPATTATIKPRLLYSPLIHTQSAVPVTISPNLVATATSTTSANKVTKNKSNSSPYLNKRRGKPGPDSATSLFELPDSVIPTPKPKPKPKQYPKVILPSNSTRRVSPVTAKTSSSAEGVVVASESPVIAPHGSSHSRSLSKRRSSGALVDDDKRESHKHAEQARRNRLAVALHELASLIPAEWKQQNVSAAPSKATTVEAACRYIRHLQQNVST

Relative binding free energy, -0.12 kcal/mol:
TACTGCACGTGGTTTG

Relative binding free energy, -0.13 kcal/mol:
TGGAGCACGTGGGGGA

Relative binding free energy, -0.03 kcal/mol:
ACTGGCACGTGTTGTA
TTAGGCACGTGGATAA
GCGGACACGTGGGTTA
GAGGTCACGTGGGGTA
AGGGGCACGTGACGTA
CAGGACACGTGGTTGT
AGGCGCACGTGTGGTA

Relative binding free energy, 0.13 kcal/mol:
TTATTCACGTGTCAGT
AGTTACACGTGTAAGT
GGTGACACGTGTGTGT
CGGATCACGTGGGATG

Relative binding free energy, 0.33 kcal/mol:
TGGCTCACGTGAGGAG
AGGTTCACGTGATGGC

Relative binding free energy, -0.18 kcal/mol:
ATGGACACGTGGGTCA
AGCTGCACGTGGGGGT
GTAGGCACGTGGGACG

Relative binding free energy, 0.03 kcal/mol:
GTTCGCACGTGTCGTT
GGTTACACGTGGACTG
GCGGGCACGTGGAGAT
TGGATCACGTGGCGAG

Relative binding free energy, 0.32 kcal/mol:
TCTGTCACGTGAACGT

Relative binding free energy, -0.26 kcal/mol:
TTCGGCACGTGGTCGG

Relative binding free energy, -0.1 kcal/mol:
GTAGGCACGTGGTCAA
GGTGGCACGTGCGACG
TTGAGCACGTGCGTGA
TAAGGCACGTGGTTTC

Relative binding free energy, -0.17 kcal/mol:
TGATCCACGTGGGGTG
TTCAACACGTGGGGAG
CATCGCACGTGGGTTG

Relative binding free energy, 0.37 kcal/mol:
GAGGTCACGTGAGAGG
AGGAACACGTGAGGGC

Relative binding free energy, 0.26 kcal/mol:
TGAGTCACGTGATATG
GGGTCCACGTGAGTAG

Relative binding free energy, 0.34 kcal/mol:
GAGCTCACGTGTTAGT

Relative binding free energy, -0.16 kcal/mol:
TAAAGCACGTGGGGGT
AAAGGCACGTGGTAAG

Relative binding free energy, 0.3 kcal/mol:
GAGTTCACGTGGGTTT
ATGGTCACGTGATCTT
CGGTTCACGTGTAAGG

Relative binding free energy, -0.05 kcal/mol:
TAGTGCACGTGTTCGT
TTATCCACGTGCGTGG
GTTTGCACGTGGCGAA

Relative binding free energy, 0.09 kcal/mol:
TCAGTCACGTGTTGGA
GGTAGCACGTGATGAG
GTAAACACGTGGGAAG
GCCGTCACGTGGAGGG
GAGGTCACGTGGGCTG
ACGGTCACGTGAGTGG

Relative binding free energy, 0.2 kcal/mol:
TGTGGCACGTGAAGAA
ATAGTCACGTGATGGC
GAACTCACGTGGTGTT
TTATTCACGTGCGAGG
AGTATCACGTGCGTAT
GGTATCACGTGCTGGT

Relative binding free energy, 0.21 kcal/mol:
GGAGTCACGTGGATGT
AACATCACGTGTTGTT
TTGATCACGTGGAGAA

Relative binding free energy, -0.07 kcal/mol:
AATAACACGTGGTTGT
GGGGCCACGTGCAGGT
GGAACCACGTGGTTGT
TTGCGCACGTGGCAGA
GCGGGCACGTGTGTTT
TCTCGCACGTGTTGTT
AGTGACACGTGGCGTG

Relative binding free energy, 0.22 kcal/mol:
ACGTTCACGTGTGTGG
AGGGACACGTGATAAT
ATTTTCACGTGACAGG

Relative binding free energy, 0.17 kcal/mol:
GATAACACGTGAGGGT
GTGGACACGTGTTGAT

Relative binding free energy, 0.28 kcal/mol:
CAGTTCACGTGGTTGG
GGTTGCACGTGATTTG
GCGGTCACGTGGAGTT
AAGAACACGTGATTGT
CGATTCACGTGTCTGT
TAGTTCACGTGTTGAT

Relative binding free energy, 0.24 kcal/mol:
CTACTCACGTGTGGTT
CGGTTCACGTGTGCGT
ATGTTCACGTGCGGTA

Relative binding free energy, 0.36 kcal/mol:
GGTGGCACGTGAGAGC

Relative binding free energy, 0.31 kcal/mol:
ATATTCACGTGAGGGG

Relative binding free energy, -0.31 kcal/mol:
GGGCGCACGTGGGCTT

Relative binding free energy, 0.01 kcal/mol:
GTTGTCACGTGGGGTC
ATACGCACGTGATTGT
TTTCGCACGTGGAATG

Relative binding free energy, 0.07 kcal/mol:
GAGTACACGTGGTATT
TAAATCACGTGGGAGT
AGTGACACGTGTGTGC
ATAGTCACGTGCATGT
CGAGGCACGTGAGGGT
TTACTCACGTGTTGGG
TAGTACACGTGTAGTT
GTGATCACGTGGTTGG

Relative binding free energy, -0.2 kcal/mol:
GGGGGCACGTGTCGCG

Relative binding free energy, 0.35 kcal/mol:
TTCATCACGTGAGTTG
TTTATCACGTGAGTTC

Relative binding free energy, 0.1 kcal/mol:
ATGTCCACGTGGGTTT
CTTTACACGTGGGTGT

Relative binding free energy, 0.27 kcal/mol:
TCTTTCACGTGTGGGA

Relative binding free energy, 0.11 kcal/mol:
TCGGCCACGTGAGTGT
AAGTGCACGTGAGATG
TTTCACACGTGTGTAG
TTGAACACGTGTGTAT
GTTTACACGTGGCGGC
GTAGGCACGTGATTGA
GCTTTCACGTGGGGCA
TTACGCACGTGTGAAG

Relative binding free energy, -0.14 kcal/mol:
GGTGGCACGTGGTCGG

Relative binding free energy, 0.29 kcal/mol:
TTATTCACGTGTGCCG
CATGTCACGTGAGGGG
TGCTTCACGTGATGAT

Relative binding free energy, 0.12 kcal/mol:
TTTATCACGTGTTAAC
TTAGTCACGTGTTTTT
AGTTACACGTGGAGAT

Relative binding free energy, -0.01 kcal/mol:
TGTGTCACGTGGTCGT
TTGTCCACGTGGATTG
ATCGACACGTGGGATG

Relative binding free energy, 0.05 kcal/mol:
GCCGTCACGTGGGATG
GTGTCCACGTGTGGCG
TATTTCACGTGGGGGA
GTAGGCACGTGATGAA
GTTTACACGTGGTACT

Relative binding free energy, 0.43 kcal/mol:
TTTTTCACGTGATGGT

Relative binding free energy, 0.08 kcal/mol:
ATTGGCACGTGAGCAT
AATCGCACGTGTGTGA
TGGGTCACGTGCCAGG
GCTGGCACGTGATGAG
GTAGTCACGTGGTCGG
GGCGTCACGTGGGTCG
GGCGTCACGTGGAGCT
ATGTGCACGTGTAGCA
TATGGCACGTGGAATA
CTGGTCACGTGTTTGA
ATGGCCACGTGAATGG

Relative binding free energy, 0.23 kcal/mol:
CGGTTCACGTGCGCGG
TTTCTCACGTGTTAGA
GTGTACACGTGAGGTC

Relative binding free energy, -0.08 kcal/mol:
ATGTGCACGTGTTTGT
GGGCGCACGTGGGTAC
ATGTCCACGTGCGGGG
CTGCGCACGTGGAGGT
CAGGACACGTGGGTGT

Relative binding free energy, -0.29 kcal/mol:
AGGGGCACGTGGGCTT

Relative binding free energy, -0.11 kcal/mol:
TAAAGCACGTGTTTCT
TATTGCACGTGGTAGT
GAAGACACGTGGGAGG
GGGTGCACGTGCGGGA

Relative binding free energy, -0.32 kcal/mol:
TCAGGCACGTGGGTGG
CGATGCACGTGGGGCG

Relative binding free energy, -0.15 kcal/mol:
TTTGGCACGTGGGGGT
CCGAGCACGTGGTGGT
CGTGACACGTGCGGTG
AATTGCACGTGGGTAT

Relative binding free energy, 0.18 kcal/mol:
TGTGCCACGTGGAATA
AGTCTCACGTGGGAAT
TTGTTCACGTGAAGAG

Relative binding free energy, 0.38 kcal/mol:
TTTTTCACGTGTATCC

Relative binding free energy, 0.25 kcal/mol:
GTCTACACGTGAGTTG
ATGTACACGTGAGGAT
CTTTTCACGTGTTAGT
ATTCTCACGTGTTGTG

Relative binding free energy, 0.54 kcal/mol:
GACGTCACGTGAGTAG

Relative binding free energy, 0.02 kcal/mol:
GGAATCACGTGGGTAA
ATGGTCACGTGGGGAG
ATATACACGTGTTGAA
TACGTCACGTGTAGGA
TGTAACACGTGGTAAT

Relative binding free energy, -0.02 kcal/mol:
TTTGCCACGTGTTTTT
TGCGACACGTGTTATG
TATGGCACGTGCTTGG

Relative binding free energy, -0.21 kcal/mol:
CATTGCACGTGGGCGT
CGTAGCACGTGGATGT

Relative binding free energy, -0.06 kcal/mol:
TTGTCCACGTGGGGGG
CATAGCACGTGTGTAT
GTTGGCACGTGTGTGC

Relative binding free energy, 0.14 kcal/mol:
GCGAACACGTGTGGGG
TTGGACACGTGGTACA
CGTTTCACGTGCGGTA
GTAGCCACGTGTGGTT
TAATGCACGTGTAGCA

Relative binding free energy, 0.06 kcal/mol:
ATAGTCACGTGCTGGT
ATTAGCACGTGGATGG
ACTAGCACGTGTGTAT
TCCGGCACGTGCGGTT
TGGAACACGTGGTTGT
GATAGCACGTGTATTA

Relative binding free energy, -0.28 kcal/mol:
TGCGGCACGTGGGCAA
AGGGGCACGTGCTGGG

Relative binding free energy, -0.09 kcal/mol:
TTGGGCACGTGTTCGG
AAGCACACGTGGGGTG
TGATACACGTGGGTTG
TAGGACACGTGGGGGT
TTGAGCACGTGGACGG
AGAGGCACGTGCAGGG
AAAGGCACGTGTCTGG

Relative binding free energy, 0.15 kcal/mol:
GTAGGCACGTGAGGAG
TACGTCACGTGGCAGG
GGGGTCACGTGTCAAT
TTTATCACGTGGTGGG
TTAATCACGTGTGTCA

Relative binding free energy, 0.39 kcal/mol:
TGATTCACGTGAACTT
TATTTCACGTGTCGCA
GGGATCACGTGACGTT

Relative binding free energy, 0.16 kcal/mol:
GTTTCCACGTGGTTGG
GCTGTCACGTGTTCGT
TTGATCACGTGCGAGA
ATGGTCACGTGATGCG

Relative binding free energy, 0.49 kcal/mol:
GTTTTCACGTGAATTT

Relative binding free energy, -0.04 kcal/mol:
TGTGCCACGTGTTTAT
GCGTGCACGTGTTGGT
GGGTGCACGTGCTAGT
GAGGCCACGTGGTGTG
TACTGCACGTGTTATG
ATATCCACGTGGGTTT

Relative binding free energy, 0.47 kcal/mol:
GGATTCACGTGATGAG

Relative binding free energy, 0 kcal/mol:
TTGGACACGTGGGAGG
ATTGGCACGTGTCTAT
GATGCCACGTGGTGGG
TAAGGCACGTGTCTGT
TGGTCCACGTGGAGGC
GGGTGCACGTGCTAAT

Relative binding free energy, 0.19 kcal/mol:
TAATGCACGTGAACGT
GAGTACACGTGCGTTA
GTTGTCACGTGGAGGC
TTTTCCACGTGTTGCG

Relative binding free energy, 0.04 kcal/mol:
AAAGACACGTGGTTTG
TGTGTCACGTGCTTTA
TCGTGCACGTGGTTTT
AAAGTCACGTGTTTAA
